Assay results: paper PMC4336329 (PLoS ONE, 2015)
About 2,200 (0.71%) of roughly 310,000 compounds showed an effect of 50% or more. Effects have a minus sign here. The list shows a part of the results.

Target: human ether-à-go-go-related gene (hERG) potassium channel (human, UniProt Q12809)
Assay: primary screen, population patch clamp on CHO cells stably expressing hERG

human ether-à-go-go-related gene (hERG) potassium channel, sequence (Q12809 whole entry, looked up): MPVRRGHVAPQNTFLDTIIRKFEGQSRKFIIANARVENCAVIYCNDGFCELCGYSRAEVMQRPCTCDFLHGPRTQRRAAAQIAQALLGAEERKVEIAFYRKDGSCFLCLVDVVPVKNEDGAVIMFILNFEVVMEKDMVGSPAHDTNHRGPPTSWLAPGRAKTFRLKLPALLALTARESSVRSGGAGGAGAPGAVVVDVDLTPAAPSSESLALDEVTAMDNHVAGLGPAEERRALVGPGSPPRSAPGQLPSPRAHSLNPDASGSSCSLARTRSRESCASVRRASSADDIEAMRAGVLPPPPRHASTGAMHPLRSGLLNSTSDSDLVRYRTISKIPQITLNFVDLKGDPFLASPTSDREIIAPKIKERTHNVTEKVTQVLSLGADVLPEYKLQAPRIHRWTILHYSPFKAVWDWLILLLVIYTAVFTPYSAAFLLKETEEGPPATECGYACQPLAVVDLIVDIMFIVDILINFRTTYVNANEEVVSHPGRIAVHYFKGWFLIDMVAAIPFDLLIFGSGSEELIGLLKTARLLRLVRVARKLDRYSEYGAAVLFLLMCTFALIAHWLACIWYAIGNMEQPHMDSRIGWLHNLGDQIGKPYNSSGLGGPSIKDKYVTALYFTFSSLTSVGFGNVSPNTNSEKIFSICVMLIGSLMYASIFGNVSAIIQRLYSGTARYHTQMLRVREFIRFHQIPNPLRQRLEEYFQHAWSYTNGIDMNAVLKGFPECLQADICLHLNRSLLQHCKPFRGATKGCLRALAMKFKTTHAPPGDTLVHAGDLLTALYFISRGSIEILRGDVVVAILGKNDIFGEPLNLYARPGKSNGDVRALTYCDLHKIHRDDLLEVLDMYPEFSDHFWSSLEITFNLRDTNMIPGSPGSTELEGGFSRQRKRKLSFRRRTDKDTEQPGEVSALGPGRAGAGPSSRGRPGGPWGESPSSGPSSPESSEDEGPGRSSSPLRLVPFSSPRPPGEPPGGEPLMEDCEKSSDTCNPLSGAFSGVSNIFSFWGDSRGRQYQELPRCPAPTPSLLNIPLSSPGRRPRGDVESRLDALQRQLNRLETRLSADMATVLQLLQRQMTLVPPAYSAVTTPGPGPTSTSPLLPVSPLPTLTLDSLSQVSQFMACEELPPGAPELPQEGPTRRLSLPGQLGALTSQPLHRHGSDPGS

Structure (SMILES) | hERG current change (%, negative = inhibition) at 1uM
c1csc(CNc2ncnc3nc[nH]c23)c1 | 2.53%
COc1ccccc1N1CCN(C(=O)c2ccc(CN3CCOCC3)cc2)CC1 | 13.1%
CCCCCNC(=O)c1ccc2c(=O)n(CC3CCCO3)c(=S)[nH]c2c1 (stereo not drawn) | 9.19%
CCCCCn1c(=O)[nH]c2cc(C(=O)N3CCN(c4ccc(C(C)=O)cc4)CC3)ccc2c1=O | -2.5%
O=C(NC1CCCC1)C(c1ccccn1)N(C(=O)c1csnn1)C1CCCC1 (stereo not drawn) | 12.1%
O=C(NCc1ccco1)C1CCCN(S(=O)(=O)c2cccc3cccnc23)C1 (stereo not drawn) | 9.04%
Cc1ccc(S(=O)(=O)N2CCN(c3ccccc3)CC2)cc1C | 12.5%
COc1ccccc1C(=O)N1CCN(S(=O)(=O)Cc2ccccc2)CC1 | 10.1%
Cc1ccc(CC(=O)Nc2ccc(S(=O)(=O)N3CCOCC3)cc2)cc1C | 14.5%
COCCNc1nc2c(c(=O)n(Cc3ccc(OC)cc3)c(=O)n2C)n1C | 5.03%
Oc1ccccc1-c1nnc(COc2ccccc2)o1 | 6.79%
COc1ccc(NC(=O)CCNS(=O)(=O)c2cc(Br)cnc2N)cc1OC | 19.3%
O=C(CCn1nnc2ccccc21)OCC(=O)c1ccc([N+](=O)[O-])cc1 | 8.27%
COc1cccc(NCc2nnc(SCC(=O)NC3CCS(=O)(=O)C3)n2C2CCCCC2)c1 (stereo not drawn) | 10.3%
Cc1ccc(CN2CCN(Cc3ccc4cc(F)ccc4n3)CC2CCO)o1 (stereo not drawn) | 1.19%
COc1ccc(C(=O)NCC(=O)OCn2nnc3ccccc3c2=O)cc1OC | 7.45%
Cc1cccc2c1NC(C)CC2C.Cl (stereo not drawn) | 8.68%
CC(=O)NC(=S)NNC(=O)CCc1ccccc1 | 6.91%
Cc1cccc2cc(COC(=O)c3ccccc3)c(=O)[nH]c12 | 6.77%
COc1ccc(NC(=O)N(C2CCCCC2)C(C)c2ccco2)c(OC)c1 (stereo not drawn) | 13.4%
CCCS(=O)(=O)N1CCc2ccc(NC(=O)c3ccccc3Cl)cc2C1 | 12.1%
Cc1ccccc1NC(=O)Cc1nc(COC(=O)c2cccc(O)c2)cs1 | 10.5%
O=c1oc(Cl)c(Cl)c2ccccc12 | 16.6%
CCc1c(-c2ccccc2)nc2ccccc2c1C(=O)N1CCC2(CC1)OCCO2 | 6.15%

Structure (SMILES) | hERG current change (%, negative = inhibition) at 1uM
COC(=O)C1CCN(c2cc(Cl)nc(N)n2)CC1 | 5.9%
COC(=O)c1sccc1NS(=O)(=O)c1ccc(F)cc1F | 5.34%
CCc1ccc(Nc2cnn(-c3nc4ccccc4s3)c(=O)c2Cl)cc1 | 9.7%
CN1C(CC(=O)Nc2ccc(Cl)cc2Cl)c2ccccc2CC1(C)C (stereo not drawn) | 0.404%
S=C(Cc1ccc(Cl)cc1)N1CCOCC1 | 7.88%
Cn1cc(-c2ccccc2C(N)=O)c(=O)c2cc(Cl)ccc21 | 8.57%
OCCN1CCOCCN(CCO)CCOCC1 | 10.6%
COc1ccc(C(=O)NC(CC(C)C)C(=O)O)cc1OC (stereo not drawn) | 9.19%
COc1cccc(NC(=O)c2ccccc2F)c1 | -4.2%
CC(=O)c1cccc(N=Cc2c(O)ccc3ccccc23)c1 | 7.4%
CCCCOC(=O)CCn1c(=S)oc2ccccc21 | -11.5%
O=C(NCC(O)CO)c1ccc2[nH]c3ccccc3c2c1 (stereo not drawn) | 15.2%
CC(=O)c1cc(C#N)c(N2CC(C)OC(C)C2)nc1C (stereo not drawn) | 3%
Cc1cc(C(=O)CN2C(=O)C(=O)N(CC(C)C)C2=O)c(C)n1C1CC1 | -5.82%
CN(Cc1ccccc1F)C(=O)CN1c2cccc3cccc(c23)S1(=O)=O | 20.9%
CCC(C)Nc1nc(N)c([N+](=O)[O-])c(NCc2ccccc2)n1 (stereo not drawn) | 15.3%
O=C(c1cc(COc2ccc(F)cc2Cl)on1)N1CCc2sccc2C1 | 14.6%
CC(=O)Nc1ccc(NC(=O)C(C)OC(=O)CNS(=O)(=O)/C=C/c2ccc(C)cc2)cc1 (stereo not drawn) | 14.8%
O=C(Nc1ccc(S(=O)(=O)NCC2CCCO2)cc1)C1CC(=O)N(c2ccccc2)C1 (stereo not drawn) | 8.52%
O=C(CSC1=NS(=O)(=O)c2cc(F)ccc2N1)NCc1ccccc1Cl | 10.9%
CCn1c(SC)nnc1-c1sc2cc(Cl)ccc2c1Cl | 7.49%
CC(C)(C)NC(=O)CSc1nccn1Cc1ccccc1 | 5.85%
COc1ccc(NC(=O)c2ccc(OCc3c(C)noc3C)c(OC)c2)cn1 | 3.06%
CC1=C(C(=O)OC(C)(C)C)C(c2cccs2)NC(=O)N1 (stereo not drawn) | -0.783%

Structure (SMILES) | hERG current change (%, negative = inhibition) at 1uM
CN(C)c1ccc(SC#N)cc1 | 7.06%
OCCNc1nc(Nc2ccccc2Cl)nc(N2CCCC2)n1 | 9.97%
O=C1CSC(c2ccccc2[N+](=O)[O-])N1c1cccc(F)c1 (stereo not drawn) | 6.76%
CCOC(=O)N1CCN(Cc2nc(Cc3cccc(F)c3)no2)CC1 | 12.2%
C[C@H]1CC[C@@]2(O[C@H](CCO)C[C@H](O)[C@H]2O)O1 | 19.7%
CCCC(=O)Nc1sc2c(c1C#N)CC(C)(C)NC2(C)C | 12.1%
O=C(Nc1ccc2oc(-c3ccc(Cl)c(Cl)c3)nc2c1)c1ncn[nH]1 | 7.68%
CC(OC(=O)CN1C(=O)NC(C)(C)C1=O)C(=O)c1ccccc1 (stereo not drawn) | 1.66%
O=C(c1ccc2snnc2c1)N1CCOCC1 | 14.7%
COc1ccc(CN2CCOCCOCCOCC2)cc1 | -21.8%
Cc1ccc(NC(=O)c2oc(=O)c3ccccc3c2-c2ccccc2)c(C)c1 | -3.28%
CC(C)c1ccc(-n2c(O)c(/C=N/NC(=O)c3ccccc3O)c(=O)[nH]c2=S)cc1 | 12.3%
O=C(O)c1nn(CC(=O)N2CCN(S(=O)(=O)c3ccc(Cl)cc3)CC2)c(=O)c2ccccc12 | 7.83%
CN(Cc1ccccc1)C(=O)C(=O)c1cn(CC(=O)N2CCCC2)c2ccccc12 | 10.1%
S=c1[nH]ncn1NCc1cccc(Br)c1 | 11.1%
C(=N\n1cnnc1)/c1ccc(N2CCOCC2)cc1 | -4.52%
CCC(=O)Nc1cc(=O)[nH]c2ncnn12 | -8.36%
Cc1cc(Oc2ccccc2)nc(OCC#N)n1 | -2.96%
C=C(C)C(=O)Nc1cccc(C2=NOC3(C2)C[C@@H](C(N)=O)N(C(=O)c2cc([N+](=O)[O-])cc([N+](=O)[O-])c2)C3)c1 (stereo partly drawn) | 5.23%
COc1cccc(NC(=O)CN2C(=O)COc3ccc(Cl)cc32)c1 | 8.19%
COc1cccc(NC(=O)/C=C/c2ccccc2[N+](=O)[O-])c1 | 4.18%
CN=c1oc2ccc(Cl)cc2cc1C(N)=O | 13%
CCOC(=O)c1cc(-c2ccccc2)sc1NC(=O)CCN1C(=O)c2ccccc2C1=O | 8.1%
COc1ccccc1NC(=O)c1cc2n(n1)C(C(F)(F)F)CC(c1ccc3c(c1)OCO3)N2 (stereo not drawn) | 15.1%

Structure (SMILES) | hERG current change (%, negative = inhibition) at 1uM
CCOc1ccccc1NC(=O)COC(=O)c1cnc(C)cn1 | 2.07%
O=C(O)CC1OCC=C2CN3CCC45c6ccccc6NC4C1C2CC35 (stereo not drawn) | 4.73%
Cl.N=C(N)N=Nc1c(O)[nH]c2ccc(Br)cc12 | 6.02%
O=C(O)COCC(=O)NC1CCN(Cc2ccccc2)CC1 | 16%
Cc1ccc2c(CC(=O)OCC(=O)N(CC(C)C)c3c(N)n(Cc4ccccc4)c(=O)[nH]c3=O)coc2c1 | 6.91%
NC(=S)N/N=C/c1ccc2cccc(OCc3ccccc3)c2n1 | 8.98%
COc1ccc(NC(=O)/C=C/c2cccc(F)c2)cn1 | 0.502%
O=C(Nc1ccc(Cl)c(Cl)c1)c1ccc2c(c1)OCO2 | 16.9%
O=C(OCCOc1ccccc1F)c1cccc(S(=O)(=O)N2CCOCC2)c1 | 24.6%
O=C(NC1CCCCC1)c1cc(N2C(=O)CCC2=O)ccc1Cl | 13.2%
Cc1nn(-c2ccccc2)c(C)c1NC(=O)COC(=O)Cc1ccccc1 | 2.16%
CCOc1ccc(OCC)c(S(=O)(=O)NCc2cccnc2)c1 | 3.9%
O=C(COc1ccc(S(=O)(=O)N2CCCC2)cc1)NCc1ccccn1 | 7.77%
CCC(C)(C)C(=O)Nc1ccc(OC)cc1[N+](=O)[O-] | -11.7%
COc1ccc(-c2[nH]c3ccccc3c2SCCN)cc1 | 5.18%
CC(C)NC(=O)NC(=O)COC(=O)c1cc[n+]([O-])cc1 | 8.5%
ONC(=Nc1ccccc1)C(=Nc1ccccc1)NO | 3.23%
O=C(NCCc1ccncc1)C12CC3CC(CC(C3)C1)C2 | -0.276%
CSc1nc2c(c(-c3ccccc3)c1C#N)CCC2 | 4.06%
O=C(O)c1ccccc1SSc1ccccc1C(=O)O | 11.2%
O=C(N/N=C/c1ccc(OC(=O)c2ccco2)cc1)c1ccncc1 | 6.49%
